Source: the supplement of paper PMC4967469

Experiments:
Assay in all cases: Viability of human cancer cell lines after 72 h of drug (GDSC screen)
Phenformin = compound: N=C(N)NC(=N)NCCc1ccccc1 [Phenformin]; conditions: top dose 4000 µM; top dose inferred
Experimental: (§1)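 Human cancer cell lines in 384-well plates, medium with 10% serum, drug for 72 h over a 256-fold dose range (nine 2-fold or five 4-fold steps up to the top dose). Adherent lines were fixed and stained with the nucleic acid dye Syto60, suspension lines read with resazurin; signal relative to control wells, capped at 0 and 100%. One two-parameter sigmoid per drug and line, fitted in a mixed model over all curves with the slope shared within a line.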

Vinorelbine = compound: CCC1=C[C@@H]2CN(C1)Cc1c([nH]c3ccccc13)[C@@](C(=O)OC)(c1cc3c(cc1OC)N(C)[C@H]1[C@@](O)(C(=O)OC)[C@H](OC(C)=O)[C@]4(CC)C=CCN5CC[C@]31[C@@H]54)C2 [Vinorelbine]; conditions: top dose 0.064 µM; top dose inferred
Experimental: as §1

XL-184 = compound: COc1cc2nccc(Oc3ccc(NC(=O)C4(C(=O)Nc5ccc(F)cc5)CC4)cc3)c2cc1OC [XL-184]; conditions: top dose 5.12 µM; top dose inferred
Experimental: as §1

WHI-P97 = compound: COc1cc2ncnc(Nc3cc(Br)c(O)c(Br)c3)c2cc1OC [WHI-P97]; conditions: top dose 10.24 µM; top dose inferred
Experimental: as §1

EHT 1864 = compound: O=c1cc(CN2CCOCC2)occ1OCCCCCSc1ccnc2cc(C(F)(F)F)ccc12 [EHT 1864]; conditions: top dose 10 µM; top dose inferred
Experimental: as §1

Gefitinib = compound: COc1cc2ncnc(Nc3ccc(F)c(Cl)c3)c2cc1OCCCN1CCOCC1 [Gefitinib]; conditions: top dose 0.5 µM
Experimental: as §1

AG-014699 = compound: CNCc1ccc(-c2[nH]c3cc(F)cc4c3c2CCNC4=O)cc1 [AG-014699]; conditions: top dose 5 µM; top dose inferred
Experimental: as §1

NU-7441 = compound: O=c1cc(N2CCOCC2)oc2c(-c3cccc4c3sc3ccccc34)cccc12 [NU-7441]; conditions: top dose 2 µM; top dose inferred
Experimental: as §1

QL-XI-92 = compound: C=CC(=O)Nc1cc(NC(=O)c2ccc(C)c(NC(=O)c3ccno3)c2)cc(C(F)(F)F)c1 [QL-XI-92]; conditions: top dose 10.24 µM; top dose inferred
Experimental: as §1

Cell Line	AUC (Phenformin)	IC50 (Phenformin) [µM]	AUC (Vinorelbine)	IC50 (Vinorelbine) [µM]	AUC (XL-184)	IC50 (XL-184) [µM]	AUC (WHI-P97)	IC50 (WHI-P97) [µM]	AUC (EHT 1864)	IC50 (EHT 1864) [µM]	AUC (Gefitinib)	IC50 (Gefitinib) [µM]	AUC (AG-014699)	IC50 (AG-014699) [µM]	AUC (NU-7441)	IC50 (NU-7441) [µM]	AUC (QL-XI-92)	IC50 (QL-XI-92) [µM]
42-MG-BA (glioma, adherent)	0.869	> 4000	0.961	> 0.064	0.924	> 5.12	0.98	> 10.2	0.889	> 10	0.981	> 0.5	0.92	> 5	0.927	> 2	0.956	> 10.2
201T (lung adenocarcinoma, adherent)	0.716	1220	0.527	0.00484	0.967	> 5.12	0.964	> 10.2	0.981	> 10	0.91	> 0.5	0.981	> 5	0.934	> 2	0.95	> 10.2
451Lu (melanoma, adherent)	0.829	2350	0.547	0.00534	0.982	> 5.12	0.962	> 10.2	0.918	> 10	0.977	> 0.5	0.977	> 5	0.958	> 2	0.988	> 10.2
639-V (bladder, adherent)	0.912	> 4000	0.617	0.00797	0.989	> 5.12	0.99	> 10.2	0.979	> 10	0.944	> 0.5	0.992	> 5	0.853	1.21	0.992	> 10.2
647-V (bladder, adherent)	0.946	> 4000	0.69	0.0137	0.979	> 5.12	0.975	> 10.2	0.867	9.1	0.925	> 0.5	0.958	> 5	0.941	> 2	0.979	> 10.2
5637 (bladder, adherent)	0.976	> 4000	0.547	0.0053	0.968	> 5.12	0.94	> 10.2	0.93	> 10	0.963	> 0.5	0.94	> 5	0.976	> 2	0.923	> 10.2
8305C (thyroid, adherent)	0.793	2500	0.534	0.00508	0.942	> 5.12	0.97	> 10.2	0.933	> 10	0.974	> 0.5	0.888	> 5	0.858	> 2	0.982	> 10.2
8505C (thyroid, adherent)	0.932	> 4000	0.538	0.00512	0.937	> 5.12	0.964	> 10.2	0.946	> 10	0.977	> 0.5	0.935	> 5	0.963	> 2	0.958	> 10.2
23132-87 (stomach, adherent)	0.893	> 4000	0.538	0.00511	0.924	> 5.12	0.972	> 10.2	0.965	> 10	0.986	> 0.5	0.986	> 5	0.961	> 2	0.981	> 10.2
AGS (stomach, adherent)	0.85	2570	0.49	0.00376	0.969	> 5.12	0.978	> 10.2	0.931	> 10	0.989	> 0.5	0.973	> 5	0.921	> 2	0.99	> 10.2
ASH-3 (thyroid, adherent)	0.937	> 4000	0.826	0.0388	0.988	> 5.12	0.988	> 10.2	0.983	> 10	0.988	> 0.5	0.988	> 5	0.971	> 2	0.988	> 10.2
AU565 (breast, adherent)	0.798	2160	0.496	0.0039	0.959	> 5.12	0.974	> 10.2	0.938	> 10	0.89	> 0.5	0.917	> 5	0.923	> 2	0.968	> 10.2
AsPC-1 (pancreas, adherent)	0.904	> 4000	0.934	> 0.064	0.931	> 5.12	0.973	> 10.2	0.918	> 10	0.974	> 0.5	0.926	> 5	0.933	> 2	0.963	> 10.2
BFTC-905 (bladder, adherent)	0.943	> 4000	0.531	0.00479	0.967	> 5.12	0.99	> 10.2	0.963	> 10	0.959	> 0.5	0.961	> 5	0.895	1.84	0.971	> 10.2
BHT-101 (thyroid, adherent)	0.828	2580	0.944	> 0.064	0.907	> 5.12	0.982	> 10.2	0.915	> 10	0.976	> 0.5	0.874	> 5	0.889	> 2	0.966	> 10.2
BICR10 (head and neck, adherent)	0.964	> 4000	0.822	0.0451	0.985	> 5.12	0.985	> 10.2	0.982	> 10	0.982	> 0.5	0.97	> 5	0.974	> 2	0.974	> 10.2
HT-1376 (bladder, adherent)	0.773	1830	0.782	0.0317	0.985	> 5.12	0.984	> 10.2			0.929	> 0.5	0.973	> 5	0.953	> 2	0.985	> 10.2
LCLC-97TM1 (large cell lung carcinoma, adherent)	0.592	459	0.428	0.00249	0.903	> 5.12	0.924	> 10.2			0.975	> 0.5	0.928	> 5	0.92	> 2	0.835	7.69
MDA-MB-415 (breast, adherent)	0.59	481	0.711	0.0196	0.981	> 5.12	0.98	> 10.2	0.979	> 10	0.983	> 0.5			0.935	> 2	0.983	> 10.2
MDA-MB-436 (breast, adherent)	0.863	> 4000	0.789	0.0367	0.972	> 5.12	0.968	> 10.2	0.958	> 10	0.973	> 0.5			0.962	> 2	0.975	> 10.2
MDA-MB-453 (breast, adherent)	0.326	77.2	0.86	0.0638	0.971	> 5.12	0.975	> 10.2	0.854	9.26	0.984	> 0.5			0.983	> 2	0.94	> 10.2
NCI-H810 (large cell lung carcinoma, adherent)	0.625	545	0.534	0.00492	0.906	> 5.12	0.963	> 10.2			0.964	> 0.5	0.971	> 5	0.987	> 2	0.914	> 10.2
NCI-H2342 (lung adenocarcinoma, adherent)	0.873	> 4000	0.535	0.00505	0.969	> 5.12	0.946	> 10.2			0.973	> 0.5	0.983	> 5	0.986	> 2	0.986	> 10.2
PFSK-1 (medulloblastoma, adherent)	0.716	1070	0.698	0.015	0.949	> 5.12	0.971	> 10.2	0.955	> 10	0.969	> 0.5			0.925	> 2	0.957	> 10.2
SISO (cervix, adherent)	0.571	388	0.583	0.00669	0.978	> 5.12	0.979	> 10.2			0.968	> 0.5	0.969	> 5	0.974	> 2	0.963	> 10.2
SW756 (cervix, adherent)	0.952	> 4000	0.845	0.0597	0.98	> 5.12	0.984	> 10.2			0.985	> 0.5	0.985	> 5	0.976	> 2	0.974	> 10.2
SiHa (cervix, adherent)	0.419	145	0.917	> 0.064	0.987	> 5.12	0.984	> 10.2	0.983	> 10	0.985	> 0.5			0.981	> 2	0.987	> 10.2

Lines with a small IC50 respond at low doses; a limit (>, <) means that the fit lies beyond the doses tested. AUC, from the same fit, is the share of area under the viability curve across the 256-fold dose range: 1 means no effect, lower means more sensitive. For some assays here: An inferred top dose was calculated from the reported fits.
